This is an account of results in PubChem BioAssay AID1347073 (National Center for Advancing Translational Sciences (NCATS), 2019).

The campaign covered roughly 45,000 compounds. About 200 (0.44%) were called active. Inconclusive results (about 7%) are left out. Calls come from the whole dose curve; as a rule, active = well fitted activation curve with a large enough effect; inconclusive = small, poorly fitted or top-dose-only effect; inactive = no such curve, though single readings can be large or run the other way. The list shows a part of the results.

The nature of this experiment: qHTS of TDP-43 Inhibitors: NCGC Sytravon Library Screen. Note: 0% is about no effect; nearly all actives have a fitted effect of over 55% in size. The conditions noted are these: yeast TDP-43 toxicity rescue, BacTiter-Glo growth, 24 h; series mostly up to 46.1 µM; growth rescue (activation): at the top concentration. The method in brief: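 TDP-43-expressing yeast, pregrown in raffinose, seeded at OD600 0.02 in galactose medium with compound for 24 hr at 30 deg C. Growth read by BacTiter-Glo luminescence, so rescue of toxicity appears as activation.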
As for `Cc1nc2ccccc2n1CC(O)c1ccccc1` (stereo not given), the “growth rescue (activation)” value is inactive: -8.37%.
The figure for `COc1ccc(N(CC(=O)Nc2cccc([N+](=O)[O-])c2C)S(C)(=O)=O)cc1OC` is inactive: 18.6%; for `N#Cc1c(-c2ccco2)c2c([nH]c1=S)CCCC2` it is inactive: 27%.
The figure for `Cc1cc(C)cc(N(C(=O)c2snc(C(N)=O)c2N)C(C(=O)NCC2CCCO2)c2ccc(C)o2)c1` (stereo not given) is inactive: 0.391%; for `CC(=O)c1cccc(OCC(=O)N2CCCc3ccccc32)c1` it is inactive: 29.2%.
The figure for `Cc1ccc(S(=O)(=O)NNC(=O)CCCCC(=O)NNS(=O)(=O)c2ccc(C)cc2)cc1` is inactive: -15.2%; for `CCN(CC)c1ccc(N/C(N)=N/c2nc(C(F)(F)F)cc(=O)[nH]2)cc1` it is inactive: 0.139%.
Turning to `N#Cc1ccc(-c2ccc(OCC(=O)NCC(=O)Nc3ccc(F)c(F)c3F)cc2)cc1`, the “growth rescue (activation)” value is inactive: 13.7%.
The figure for `O=C(COc1ccccc1Cl)Nc1ccc2oc(=O)ccc2c1` is inactive: 13.2%.
The figure for `CC(/C=N/NC(=O)CSc1n[nH]c(=O)[nH]c1=O)=C\c1ccccc1` is inactive: 17.2%.
As for `CCOC(=O)C1CCCN(C(=S)NC2CCCC2)C1` (stereo not given), the figure is inactive: 11.1%; as for `O=C(NC(=S)Nn1cnnc1)c1ccccc1Cl`, inactive: 10.9%; as for `Cc1cc(=O)[nH]c(SCC(=O)N(CCC#N)c2ccccc2)c1C#N`, inactive: -4.94%.
With `CCCC(C(=O)NC1CCCC1)N(Cc1ccc(F)cc1)C(=O)c1snc(C(N)=O)c1N` (stereo not given), the “growth rescue (activation)” value is inactive: -0.171%.
The figure for `C[C@]12C=C[C@H](O)CC1=CCC1C2CC[C@@]2(C)C1CCC21OCCO1` (stereo not given in full) is inactive: 0.0738%; for `O=C(CSc1n[nH]c(=O)[nH]c1=O)Nc1ccccc1C(=O)c1ccccc1` it is inactive: 8.73%.
The figure for `NS(=O)(=O)c1ccc(CCNC(=O)C2(S(=O)(=O)c3ccc(Cl)cc3)CC2)cc1` is inactive: 5.09%; for `O=C(Nc1cccc(Cl)c1)C1CCN(C(=O)c2cccs2)CC1` it is inactive: 14%.
`CCOC(=O)c1sc(NC(=O)c2ccc(OC)cc2)nc1C`: the “growth rescue (activation)” value was inactive: 7.43%.
`COc1ccc(OC)c(S(=O)(=O)N2CCCC(C(=O)N3CCOCC3)C2)c1` (stereo not given): the “growth rescue (activation)” value is inactive: -8.7%.
The figure for `CNCCCOc1cccc(OC(C)C)c1` is inactive: 28.7%.
As for `N#C/C(=N\Nc1ccccc1F)c1nc(-c2ccccc2)cs1`, the figure is inactive: 7.53%.
The figure for `O=C(COC(=O)/C=C/c1ccccc1Cl)NC(=O)Cc1ccccc1` is inactive: 7.15%; for `Nc1ccc(Oc2cc(N)cc(Oc3ccccc3)c2)cc1` it is inactive: 21.1%.
With `Cc1ccc(-c2nc(CSc3nc4ccccc4c(=O)n3C)cs2)cc1`, the “growth rescue (activation)” value is inactive: 30%.
As for `CC(C)c1nnc(SCC(=O)N2CCN(C(=O)c3ccco3)CC2)n1N`, the figure is inactive: 7.6%.
As for `CC(=O)N1N=C(c2ccc(C)o2)CC1c1ccc(F)cc1` (stereo not given), the figure is inactive: 9.18%; as for `CC(C)[C@H](NC(=O)c1ccco1)C(=O)OCC(=O)c1ccc(Br)s1`, inactive: 0.501%; as for `Cc1nc2scc(C)n2c(=O)c1S(=O)(=O)N1CCN(c2ccccc2)CC1`, inactive: 6.11%.
The figure for `CCOc1ccc2c(c1)c(N=NC(=N)N)c(O)n2C` is inactive: 10.7%.
